Over roughly 4,500 sequences, “median log2 fold change of GCK-ALFA target abundance (FLAG IP / Myc IP barcode read proportion)” has its median near 0.078; the lowest 2% begin near -0.6. This is one part of the list.
B1: GBRAP_83_6879 (protein)
chain: AEEIAVAGPASRHEEIADAVIDLTKEEGYDVVVELLVTPEELEDVLALAERLAAAGVDVELEVHGVGVTPEQAAALEARLKAIFAAAGVNVTVTVRLEEP
B2: GBRAP_52_6381 (protein)
chain: MVEEAYEILRKAIELIIKGGPKEEVEELAKKLSEYSDETLIKAAELLAEEILKLSKEEAEKVLDATFELGDILEEEGVPEETVSYIEAIIGKAAYERLQK
B3: GBRAP_137_3621 (protein)
chain: KRVTITFYEEDGTLIAEIVADTSVDREALLALVEEVAAETGVQVVVAESEPDEPTVIYLVGAPEAVIAAVRRLIERIRAELGVEVELRSEGAEAAVAAVE
B4: GBRAP_83_6930 (protein)
chain: KEEIVVVGNSDNIEEAFDAAIDLSKEDGYKVILEIIITPEAFPKLLKAFKKLAEAGIDAEIHIVAEGATEEEAEELKKELEKIAKEAGVKVKVEVTLLEP
B5: GBRAP_160_4049 (protein)
chain: EEEKEELLEMVEEAEKEVIEVLDEEGAEAALTMFAGLSGEIIMEAFEDENASDELVDELAKVRDEGVKRLEENKNASKEELKKIIEEAAKRMKEIIKKHY
B6: GBRAP_184_5035 (protein)
chain: KVIERTIEAENEEELKKKVEALRKEVKGTGATLIVLAKIKNPTEEKVKLLIEGLGDMLRNGDVSEVVIGFEEELSEEITDVAIKTGDEEGVKVVLPISDE
B7: GBRAP_52_6330 (protein)
chain: SKEKVEELAEKLYEAIVAGKKEEAYALAKEAVETLSSEEILELTRIVAEKVSKEDDEVKERATEVFEYLAELVEEERGDEETAAEILGIVATTLYKAEQE
B8: GBRAP_43_5770 (protein)
chain: SKELVEGALDFALLAAESPEIPEETKVKAIIAALELAADEGYADKELVLKVIEAAAKNLSAEELEKIAKKAEEIAKKHPELKETYEEAVKVLKAAIKAKK
B9: GBRAP_52_6020 (protein)
chain: MEEELRAFAEEVLALVRAGRLEEARARVEEKVASLNEEEVKVLIEVVAELAAAAAPADHDAVWRLAEMIAEAMEKAGYDEVLADLLLARVAAALYEAEQR
B10: GBRAP_128_3363 (protein)
chain: VDEEKLEKVRELVKKMIESSVEEARKLAEEIVELMKTMSLEEQEAAVEIIKEYLPKLSKEKLEVLADVIREKRPEMDPEKANLLSDVEVEALNQAEELEE
B11: GBRAP_9_7150 (protein)
chain: LEELIEELEKIFREMVEEVREIVPEEVLPVVEKMEEEAKKRFEELKEDEEITEEEAVEEAKRIVREFTEAVSEKVDPETARMVRAIGDTALLEIEEIKEK
B12: GBRAP_160_4632 (protein)
chain: SEKLKKALEKVEEAEEFVKSLIPEVNVEQAANFLDTEFGSVILELYEEGLISEETADKMMEIVDEAVAYMRAHPDLTEEERKKLVEETAKKIKEVLKEEY
B13: GBRAP_128_3528 (protein)
chain: SLEEAKKKAAEVVEKIIASTPEEARKITEEFLEWLKTLSDEEVEAAADVLIENLPKLTAEKLDVVADVFEEKRPEFSPEKQKYIADVEVAALNEAEEKEE
B14: GBRAP_39_5651 (protein)
chain: EEEEENELLFDYYEALAVGYMVKNGISEEELIKKGLEILEKIAKEHPEIKELVEKLIELAKTGNEEVKLAAAGIALEYEEGLPIEEIKEHIEKFIKYVEK
B15: GBRAP_52_6087 (protein)
chain: MEERLEKLAKEIAEAVAAGKRDEALALMEKAIKELSVEEIKKLFKLAAELVAKLGEEAEELFVDLLDEAEDLLIEAGISEEDALLIVGDAEAALAKAVAA
B16: GBRAP_128_3488 (protein)
chain: ADPAAVAEARELVKEMAESDLERARELAERLVDLLAAADPETREAIVEAVEEEAPELSEEHLEVAMDVFRERRPEADPETAQAILDIDVVLGAELYEKME
B17: GBRAP_160_4845 (protein)
chain: SEKLEKVKKELEEARDFILSLVDEVSVEDLAKFADAELGSTGLYLLEEGYINEEAFDALLEENDKLVKELLANKDASPEEIKEIIKKHVERAIEEIEKLL
B18: GBRAP_57_6462 (protein)
chain: MSPLEKALEYFEKALELVKEGAPLEEILKEVKKGLDLLDKTTLLDILLLLDPNTRSDLSKEELKKKILELIRKALEEEGREAAAKRVRLIAGQVEMDLLD
B19: GBRAP_52_6089 (protein)
chain: MEEKLKKYAEELLKAAVAGDLDAATKLLLKMVAELTDEEVLEALKQLAKQIAALPPEERDKALDVALEALSRVADETGKEELMDLAMAQLAAEAYKAEQA

These binders were tested against GABARAP, O95166 (assay: median log2 fold change of GCK-ALFA target abundance (FLAG IP / Myc IP barcode read proportion) (log2 ratio); each designed protein is fused to an ALFA-tag nanobody in HEK293 cells to bring the named protein to FLAG-tagged glucokinase (GCK); Myc marks an untargeted standard; higher = target protein stabilised (more abundant)). Conditions: target protein: 3xFLAG-MCP-GCK-ALFA reporter; HEK293 landing pad (RPLP).
GABARAP, O95166, sequence (O95166 whole entry, the tested form may be a part): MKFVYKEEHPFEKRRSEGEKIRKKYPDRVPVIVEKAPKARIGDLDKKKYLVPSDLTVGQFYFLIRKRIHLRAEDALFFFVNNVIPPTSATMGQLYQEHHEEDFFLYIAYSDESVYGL
How it was run: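 An ALFA-nanobody-fused binder library was recombined into HEK293 landing-pad cells and induced with 2 μg mL^−1 doxycycline. Cells were transfected with a plasmid expressing a FLAG-tagged target and a Myc-tagged standard. After 48 h, lysates underwent anti-FLAG and anti-Myc immunoprecipitation, and circular RNA barcodes were reverse transcribed, amplified and sequenced. Target abundance is the per-binder median log2 ratio of FLAG to Myc barcode read proportions. Barcodes needed ≥10^−7 proportion in both replicates, binders ≥3 barcodes per replicate, and a 10^−6 pseudocount was added; the two replicates were pooled.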

Row | Binder | median log2 fold change
1 | B1 | 0.0381
2 | B2 | 0.0556
3 | B3 | -0.19
4 | B4 | -0.159
5 | B5 | -0.0355
6 | B6 | -0.357
7 | B7 | 0.262
8 | B8 | 0.151
9 | B9 | 0.0489
10 | B10 | 0.332
11 | B11 | 0.158
12 | B12 | -0.0792
13 | B13 | 0.266
14 | B14 | -0.0265
15 | B15 | -0.234
16 | B16 | -0.0521
17 | B17 | -0.12
18 | B18 | -0.108
19 | B19 | 0.168
